Data on 86 compounds can be found in ChEMBL document CHEMBL4888484, “Replenishing the malaria drug discovery pipeline: Screening and hit evaluation of the MMV Hit Generation Library 1 (HGL1) against asexual blood stage Plasmodium falciparum ,using a nano luciferase reporter read-out” (2022).

Among all 150,000 compounds or so, about 540 (0.36%) showed an effect of 50% or more. The list shows a part of the results.

For the test, the system named is Plasmodium falciparum. The experiment in a line: Primary screen in NF54 nanoGlo assay, in single point, at 2uM, 72h; a lower Z score goes with more inhibition. The class given is functional, Erythrocyte. The conditions noted are these: timepoint 72 hour.
The % Inhibition is the drop in the measured response relative to a control, in per cent. On to `O=S(=O)(c1ccc(F)cc1F)N(C1CC1)[C@H]1CCCc2ccccc21`, for which the “% Inhibition” value is reported as -7% and the Z score was found to be 1.13.
As to `CO[C@H]1CCCN(C(=O)Nc2ccccc2N2CCCC2=O)CC1`, the “% Inhibition” value was -5% and the Z score is given as 0.91.
In the same order, the values of `Cc1nnsc1C(=O)Nc1cccc(-c2nc3ccccc3s2)c1` are -19% and 3.22.
The like results for `CC(=O)N1CCC(C(=O)Nc2ccc(OCCCc3ccccc3)cc2)CC1` were, in that order, -11% and 1.71.
Turning to `CN1CCN(C)c2cc(NC(=O)CNC(=O)C(C)(C)C)ccc2C1`, the “% Inhibition” value was 32% and the Z score was -3.65.
In the same order, the values of `CCCOc1cccc(CCNC(=O)N2CC3CC4CC3C2C4O)c1` (configuration not stated) are -17% and 2.35.
Regarding `CCCc1cnc(N(C)CC(C)(C)CO)nc1`, the “% Inhibition” value is listed as -2% and the Z score is recorded as 0.38.
In the same order, the values of `Cc1ccc(-n2[nH]c(C(=O)NCc3nccc(C(F)F)n3)cc2=O)cc1` are 3% and -0.34.
In the same order, the values of `O=C(CCNS(=O)(=O)c1ccc(Cl)c(C(F)(F)F)c1)NCCc1ccc2c(c1)OCO2` are -1% and 0.12.
In the same order, the values of `CCc1cnc(C)nc1-c1ccc(C(=O)N(C)[C@@H](CC)c2ccccn2)cc1` are -20% and 1.9.
`CN1CCCc2cc(C(=O)N3CCN(c4ccc(F)cc4)CC3)sc21`: the “% Inhibition” value came to 0% and the Z score is reported as -0.03.
For the compound `CCn1cc(C2=CCN(C(=O)NCc3cccc(F)c3)CC2)c2cccnc21`, the “% Inhibition” value is recorded as -10% and the Z score stood at 1.31.
Regarding `COCc1cccc(C(=O)N2CCC[C@H]2C2CCC2)c1`, the “% Inhibition” value is on record as -22% and the Z score amounted to 2.78.
The like results for `Cc1oc(C(C)C)nc1C(=O)N[C@H]1COCC1(C)C` were, in that order, 0% and 0.02.
The like results for `CCc1noc2ncnc(NCc3ccc(OC)cc3)c12` were, in that order, 12% and -1.42.
In the same order, the values of `Cn1cc(Cl)c(CNC(=O)[C@@H]2CCCN2CC(F)(F)F)n1` are -2% and 0.25.
Take `O=C(N[C@H]1CCCOC1)N[C@@H]1C[C@H]1c1ccccc1F`: the “% Inhibition” value is given as -15% and the Z score was 2.86.
For `Cc1ccc(N2CCN(C(=O)Cn3nnnc3N)CC2)cc1`, the “% Inhibition” value is -12% and the Z score was 1.68.
`O=C(CC1CCN(S(=O)(=O)c2cccs2)CC1)NC1CCN(Cc2ccccc2)CC1`: the “% Inhibition” value was -15% and the Z score was found to be 2.01.
Turning to `Cc1ncc(CN(C)C2CCC(C)CC2)cn1` (configuration not stated), the “% Inhibition” value is on record as -4% and the Z score turned out to be 0.66.
The like results for `C=CCNCCOc1ccc(Cl)cc1` were, in that order, -1% and 0.08.
In the same order, the values of `CCN1C(=O)[C@@H]2CC3(CCN(C(=O)CC(C)C)CC3)CN2C1=O` are 7% and -0.84.
Take `CCc1ccc(C2(c3ccc(CC)cc3)C[C@@H]2C(=O)NCc2ccccc2)cc1`: the “% Inhibition” value is listed as -9% and the Z score was 1.42.
Regarding `Cc1noc(C)c1S(=O)(=O)N(C)CCOc1c(Cl)cccc1Cl`, the “% Inhibition” value worked out at 4% and the Z score is given as -0.59.
Consider `O=C(O)c1cc2c(cc1C(=O)Nc1ccc(Cl)cc1)=[O+]c1ccccc1-c1ccccc1[O+]=2`, for which the “% Inhibition” value amounted to 33% and the Z score was -4.71.
In the same order, the values of `CCO[C@@H](C)c1nccn1Cc1nc(C2CC2)n[nH]1` are -4% and 0.37.
In the same order, the values of `CCCn1c(C)cnc1C[C@H]1CCN(C(=O)c2ccc(OC)cc2)C1` are -11% and 1.38.
In the same order, the values of `CCCNC(=O)c1csc(COc2ccc3c(c2)[C@H](c2ccc(C)cc2)N(C(=O)CC(C)C)CC3)n1` are -8% and 1.1.
With `O=C([C@H]1CCCN(c2ncnc3c2nc2n3CCCCC2)C1)N1CCc2ccccc2C1`, the “% Inhibition” value is recorded as -6% and the Z score was determined as 0.89.
In the same order, the values of `Cc1cccc(-c2nn(-c3ccccc3)c3nc(OCC(=O)N4CCCCC4)cc(C)c23)c1` are -1% and 0.09.
With `CCCc1cnc(NCc2cnn(CC)c2)s1`, the “% Inhibition” value was -1% and the Z score stood at 0.18.
With `CN(C)c1nc[nH]c(=O)c1NC(=O)c1ccc(F)c(Cl)c1F`, the “% Inhibition” value is recorded as -10% and the Z score came to 1.64.
Take `CCOC(=O)c1coc(N2CCC[C@]3(CCCN(Cc4ccccc4)C3)C2)n1`: the “% Inhibition” value was -1% and the Z score was found to be 0.14.
In the same order, the values of `O=C(c1coc(CN2CCN(Cc3ccccc3)CC2)n1)N1CCC[C@H]1CO` are -11% and 2.1.
In the case of `Cn1nc(C(N)=O)c2c1CCN(c1ccncc1F)C2`, the “% Inhibition” value is recorded as 6% and the Z score was -1.28.
Regarding `C[C@H](NC(=O)c1coc(NC(=O)c2ccsc2)n1)c1ccccc1`, the “% Inhibition” value is -5% and the Z score turned out to be 0.65.
The like results for `O=C(Cc1cccs1)N1CCC(Nc2cccn3ncnc23)CC1` were, in that order, 2% and -0.23.
Take `COc1ccc(CN2Cc3ccccc3OCC2=O)cc1OC`: the “% Inhibition” value is recorded as -1% and the Z score was 0.1.
With `CN(Cc1cncn1C)CC1(N2CCOCC2)CCCCC1`, the “% Inhibition” value is reported as -3% and the Z score was 0.55.
In the same order, the values of `O=S(=O)(Cc1ccco1)C1CN(S(=O)(=O)Cc2cc(F)ccc2F)C1` are -14% and 1.75.
With `CCc1nccn1CCC(=O)N(C)C[C@H]1CCOC1`, the “% Inhibition” value is on record as 1% and the Z score is reported as -0.13.
In the same order, the values of `CCC1CC(CC(=O)N[C@@H]2C[C@H]2c2cc(F)c(F)c(F)c2)CCO1` (some centres not stated) are -3% and 0.5.
On to `Cc1cc(O)c(C(=O)N2CCC([C@H](C)N3CCN(C)CC3)CC2)cn1`, for which the “% Inhibition” value is listed as -14% and the Z score was 1.7.
The like results for `O=C(Nc1ccccc1-c1nc2ccccc2[nH]c1=O)c1ccccc1Cl` were, in that order, -5% and 0.73.
In the same order, the values of `COc1ccc(N[C@@H](C)C(=O)Nc2ccc3c(c2)OCCO3)c(OC)c1` are 0% and 0.02.
In the same order, the values of `Cc1ncn(-c2cc(NCCNC(=O)C(C)(C)C)ncn2)c1C` are -3% and 0.48.
Regarding `Cc1c(CC(=O)NC(C)(C)CO)c2c(n1Cc1ccccc1)CCCC2=O`, the “% Inhibition” value was -15% and the Z score is on record as 1.98.
The like results for `Cc1ccc(CNC[C@H](O)c2cccnc2)c(Br)c1` were, in that order, 7% and -0.68.
Take `O=C(NS(=O)(=O)[C@H]1CCCOC1)c1c[nH]c(C(F)(F)F)c1`: the “% Inhibition” value is recorded as -1% and the Z score is 0.25.
The like results for `Cc1cc(C)c(CN2CCC3(CC2)COC(=O)O3)c(-n2cccn2)c1` were, in that order, -4% and 0.76.
Turning to `N#Cc1ccccc1S(=O)(=O)NC(C1CC1)C1CC1`, the “% Inhibition” value was -9% and the Z score turned out to be 0.89.
For `CCOC(=O)Cn1nc[n+]2nc(C)c(CC)c([O-])c12`, the “% Inhibition” value was -4% and the Z score is 0.46.
Consider `COc1cccn(CC(=O)N2CCC(Cn3cc(C)cn3)CC2)c1=O`, for which the “% Inhibition” value is -7% and the Z score is recorded as 1.37.
For the compound `COCCNC(=NC1CC1)NCc1ccc(N2CCCC2)cc1`, the “% Inhibition” value was 4% and the Z score was -0.7.
Turning to `CCc1nc(C)c(C(=O)N(Cc2cccnc2)Cc2ccsc2)o1`, the “% Inhibition” value was found to be 2% and the Z score is given as -0.31.
On to `NCCOc1ccc(F)cc1C(=O)NCc1ccc(-c2ncon2)cc1`, for which the “% Inhibition” value is -26% and the Z score turned out to be 4.24.
With `CC(C)[C@H]1NC(=O)[C@@H]2C[C@H](NC(=O)c3ccc4ccccc4c3)CN2C1=O`, the “% Inhibition” value is listed as -11% and the Z score is given as 1.28.
In the case of `Cc1nc(NC(=O)c2cc3c(F)cccc3s2)sc1-c1ccccn1`, the “% Inhibition” value is -8% and the Z score was determined as 1.05.
In the same order, the values of `Cc1cnccc1CN(C)C(=O)c1ccc(N)nc1` are -4% and 0.49.
As for `Cc1ccc(-c2nccn3cc(C(=O)NCc4cnccn4)nc23)cc1`, the “% Inhibition” value is recorded as -8% and the Z score turned out to be 1.47.
Take `CC(C)C(=O)N1CCC[C@H](NS(=O)(=O)c2ccc3[nH]cnc3c2)C1`: the “% Inhibition” value came out at 1% and the Z score is -0.19.
In the same order, the values of `CCOCCC(=O)NCc1cc(OC)c(O)cc1Br` are -19% and 2.02.
In the case of `CCOc1ccc(CC(=O)N2CC3(C[C@H](CC(=O)N4CCOCC4)CO3)C2)cc1`, the “% Inhibition” value is recorded as -1% and the Z score is 0.12.
Regarding `O=C(CCC(=O)N1CCC(O)CC1)N[C@@H]1C[C@H]1c1cccc(Cl)c1`, the “% Inhibition” value is recorded as -8% and the Z score worked out at 0.82.
The like results for `CCN1C(=O)COc2ccc(C(=O)NC(C)(C)C)cc21` were, in that order, -12% and 1.59.
Turning to `CN(C)c1ccc(CNC(=O)[C@@H]2CC=CCC2)cc1F`, the “% Inhibition” value was -2% and the Z score stood at 0.3.
In the same order, the values of `Cc1cc([C@H](C)NC(=O)NCc2ncnn2C)cc(C)c1F` are -6% and 0.61.
In the same order, the values of `C#CCN(C(=O)c1cc(Cl)c(Cl)[nH]1)c1nccs1` are 1% and -0.15.
In the case of `CCCCS(=O)(=O)N[C@@H](C)c1nc(-c2ccccn2)no1`, the “% Inhibition” value is recorded as -13% and the Z score was 1.17.
In the case of `COC(=O)N1CC[C@H](c2ccsc2)C1`, the “% Inhibition” value is -5% and the Z score was 1.01.
The like results for `O=C(Nc1ccc(Br)cc1Br)N1CC[C@H]2CCCC[C@H]21` were, in that order, -32% and 3.79.
As for `COc1ccc2c(c1)N1CCN(c3ccc(C)cc3)CC1C(C(=O)NCCN1CCCCC1)C2` (configuration not stated), the “% Inhibition” value was -11% and the Z score amounted to 1.31.
`Cn1cc(CCNCc2ccnn2-c2ccc(F)cc2)nn1`: the “% Inhibition” value is -11% and the Z score is given as 1.71.
Turning to `CC(C)(C)C1CCN(Cc2cnc(C3CC3)s2)CC1O` (configuration not stated), the “% Inhibition” value is given as 1% and the Z score is -0.14.
The like results for `C=CC[C@]1(CO)CCCN(C(=O)c2cc3c(n(C)c2=O)CCCC3)C1` were, in that order, 4% and -0.86.
The like results for `CN(CC(=O)NCCc1ccccc1)c1nnc(N2CCCC2=O)s1` were, in that order, -2% and 0.39.
With `COc1cccc(NC(=O)Nc2cnc(OC)nc2)c1`, the “% Inhibition” value is -5% and the Z score is recorded as 0.86.
In the same order, the values of `Cc1csc(CNC(=O)c2ccc3c(c2)CC(=O)N3)n1` are -11% and 1.87.
For `O=C(CCN1CCC(N2CCOCC2)CC1)Nc1cccc(Cl)c1`, the “% Inhibition” value is -15% and the Z score is on record as 2.59.
In the same order, the values of `O=C(NCc1ccc2c(c1)OCO2)c1ccnc(OCC2CCOCC2)c1` are -17% and 3.2.
Turning to `O=C(O)[C@@]1(CC2CC2)CCCN(Cc2ccccc2OCCO)C1`, the “% Inhibition” value is on record as -11% and the Z score turned out to be 1.87.
Turning to `c1ccc(-n2nnnc2-c2cn[nH]c2-c2cccs2)cc1`, the “% Inhibition” value is given as -8% and the Z score turned out to be 0.92.
Regarding `Fc1ccc2[nH]cc(Cc3nnn[nH]3)c2c1`, the “% Inhibition” value was 5% and the Z score is -0.93.
Take `COc1cccc(-n2c(=O)n(CC(C)C)c(=O)c3c2ncn3Cc2ccc(F)c(F)c2)c1`: the “% Inhibition” value was -24% and the Z score was found to be 2.3.
In the same order, the values of `COc1ccc(CNC(=O)C2C(=O)NCC2C(C)(C)C)cc1` (configuration not stated) are -2% and 0.37.
In the same order, the values of `CCCN(Cc1ccc(OCC(C)C)c(OC)c1)C(=O)c1cc(Cl)c[nH]1` are -11% and 1.35.
